The BET-seq Pho4 binding data (Le et al. 2018)
The other results are listed elsewhere or left out. These are noisy estimates, calculated here from bound and input reads.

The sequences below were run against T1, Pho4 (S. cerevisiae) (UniProt P07270) (assay: relative binding free energy (BET-seq); higher = weaker binding). Conditions: reference: library average.
T1 sequence: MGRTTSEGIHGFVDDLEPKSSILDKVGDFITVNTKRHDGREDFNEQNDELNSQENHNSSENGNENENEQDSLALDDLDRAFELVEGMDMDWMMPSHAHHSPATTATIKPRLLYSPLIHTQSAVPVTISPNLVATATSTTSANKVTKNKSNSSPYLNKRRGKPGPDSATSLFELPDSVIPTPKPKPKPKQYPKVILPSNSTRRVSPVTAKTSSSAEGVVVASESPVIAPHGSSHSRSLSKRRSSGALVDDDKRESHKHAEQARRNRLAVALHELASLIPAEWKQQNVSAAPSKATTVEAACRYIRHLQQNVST
In the case of GATTTCACGTGGGTTG, the “relative binding free energy” value was 0.3 kcal/mol. For GTTGACACGTGAGAAG, the “relative binding free energy” value was 0.27 kcal/mol. With TCGGGCACGTGGTAAG the “relative binding free energy” value was -0.13 kcal/mol. In the case of TATTGCACGTGTGGGG, the “relative binding free energy” value was 0.09 kcal/mol. In the case of TTATTCACGTGTGCTG, the “relative binding free energy” value was 0.21 kcal/mol. With GGTTTCACGTGTAGAT the “relative binding free energy” value was 0.43 kcal/mol. In the case of ACAGGCACGTGGGCGT, the “relative binding free energy” value was -0.24 kcal/mol. GTGATCACGTGTGGGG was tested, and the “relative binding free energy” value was 0.07 kcal/mol. AAGTTCACGTGCTGTT was tested, and the “relative binding free energy” value was 0.09 kcal/mol. For CGGGTCACGTGCGGGA, the “relative binding free energy” value was 0.16 kcal/mol. In the case of TGCGTCACGTGGAGAG, the “relative binding free energy” value was 0.08 kcal/mol. With TGTAACACGTGTTAGA the “relative binding free energy” value was -0.01 kcal/mol. CATGCCACGTGGTGGT was tested, and the “relative binding free energy” value was -0.24 kcal/mol. With AGGGTCACGTGGGGGC the “relative binding free energy” value was -0.03 kcal/mol. GTCGTCACGTGCTGGT was tested, and the “relative binding free energy” value was 0.08 kcal/mol. For GTGTTCACGTGTCAAG, the “relative binding free energy” value was 0.27 kcal/mol. TTGTTCACGTGTTAAA was tested, and the “relative binding free energy” value was 0.32 kcal/mol. With ATTTTCACGTGTTGCG the “relative binding free energy” value was 0.29 kcal/mol. In the case of ATTGGCACGTGTCGAA, the “relative binding free energy” value was -0.05 kcal/mol. For GATTGCACGTGTGGTT, the “relative binding free energy” value was 0.13 kcal/mol. With GTAGTCACGTGATGAT the “relative binding free energy” value was 0.26 kcal/mol. For TGGACCACGTGGTTTG, the “relative binding free energy” value was 0.01 kcal/mol. In the case of AAGCGCACGTGGGGTG, the “relative binding free energy” value was -0.26 kcal/mol. In the case of GAGTTCACGTGCAGTT, the “relative binding free energy” value was 0.27 kcal/mol. TGTGTCACGTGTTCCT was tested, and the “relative binding free energy” value was -0.03 kcal/mol. For AAGTGCACGTGGATGG, the “relative binding free energy” value was 0.01 kcal/mol. GATTGCACGTGATTAT was tested, and the “relative binding free energy” value was 0.13 kcal/mol. In the case of AGGGTCACGTGATTCT, the “relative binding free energy” value was 0.19 kcal/mol. TTTGACACGTGGAGTA was tested, and the “relative binding free energy” value was 0.03 kcal/mol. GGTTTCACGTGAGCAG was tested, and the “relative binding free energy” value was 0.3 kcal/mol. In the case of GGTATCACGTGCGGGG, the “relative binding free energy” value was 0.17 kcal/mol. With TTTTACACGTGTGGTG the “relative binding free energy” value was 0.16 kcal/mol. In the case of TTTACCACGTGTTGTG, the “relative binding free energy” value was -0.04 kcal/mol. For GGCTTCACGTGGGCGA, the “relative binding free energy” value was 0.14 kcal/mol. AGTGGCACGTGCAGCG was tested, and the “relative binding free energy” value was -0.2 kcal/mol. For TATCTCACGTGTGTAT, the “relative binding free energy” value was 0.18 kcal/mol. With ATATACACGTGGGTTT the “relative binding free energy” value was -0.08 kcal/mol. For TGAGTCACGTGTTGGC, the “relative binding free energy” value was 0.08 kcal/mol. For GGAGGCACGTGCTCGG, the “relative binding free energy” value was -0.33 kcal/mol. For GCTGTCACGTGTAGTA, the “relative binding free energy” value was 0.27 kcal/mol. For GTTGTCACGTGTACGT, the “relative binding free energy” value was 0.16 kcal/mol. With TGTCCCACGTGAGGGG the “relative binding free energy” value was 0.05 kcal/mol. In the case of TGCGTCACGTGTGAGT, the “relative binding free energy” value was 0.18 kcal/mol. In the case of GCTGTCACGTGGGCTA, the “relative binding free energy” value was 0.06 kcal/mol. GAGTGCACGTGGGTCG was tested, and the “relative binding free energy” value was 0.01 kcal/mol. In the case of CGTGGCACGTGTGCCG, the “relative binding free energy” value was 0 kcal/mol. For TTGTGCACGTGAATGC, the “relative binding free energy” value was 0.22 kcal/mol. For CTGTTCACGTGGTGGC, the “relative binding free energy” value was 0.3 kcal/mol. In the case of TAATTCACGTGAGGGG, the “relative binding free energy” value was 0.35 kcal/mol. With TAGTTCACGTGGTTGA the “relative binding free energy” value was 0.3 kcal/mol. In the case of GGTGACACGTGGTTGC, the “relative binding free energy” value was -0.01 kcal/mol. AAATGCACGTGCAGTG was tested, and the “relative binding free energy” value was -0.05 kcal/mol. For TTCGTCACGTGTAGCT, the “relative binding free energy” value was 0.26 kcal/mol. In the case of TTATACACGTGAGTCG, the “relative binding free energy” value was 0.3 kcal/mol. GATAGCACGTGGAATT was tested, and the “relative binding free energy” value was 0.2 kcal/mol. For TTGTCCACGTGCGTTT, the “relative binding free energy” value was -0.06 kcal/mol. With CAGTGCACGTGGAGTG the “relative binding free energy” value was -0.07 kcal/mol. In the case of AGTTACACGTGTAGTA, the “relative binding free energy” value was 0.15 kcal/mol. In the case of ATGTGCACGTGGTTCT, the “relative binding free energy” value was -0.28 kcal/mol. With TCGTTCACGTGTAGGG the “relative binding free energy” value was 0.35 kcal/mol. In the case of CGGAGCACGTGGATGG, the “relative binding free energy” value was -0.19 kcal/mol. For TGTGACACGTGGGTCA, the “relative binding free energy” value was -0.17 kcal/mol. For CTTGGCACGTGGGTAG, the “relative binding free energy” value was -0.29 kcal/mol. TCTTTCACGTGGGCAT was tested, and the “relative binding free energy” value was 0.22 kcal/mol. For TGCATCACGTGGTGGA, the “relative binding free energy” value was 0.14 kcal/mol. GCGTACACGTGTGAGT was tested, and the “relative binding free energy” value was 0.19 kcal/mol. TATTGCACGTGGGTCT was tested, and the “relative binding free energy” value was -0.19 kcal/mol. For GATGGCACGTGGGAGG, the “relative binding free energy” value was -0.08 kcal/mol. With ATATGCACGTGATATT the “relative binding free energy” value was 0.08 kcal/mol. For GTTTTCACGTGAGGCG, the “relative binding free energy” value was 0.44 kcal/mol. For TTATACACGTGTGTTC, the “relative binding free energy” value was -0.05 kcal/mol. With GGGACCACGTGGGCGT the “relative binding free energy” value was -0.23 kcal/mol. For TCTTTCACGTGTTAGT, the “relative binding free energy” value was 0.33 kcal/mol. For TTAATCACGTGTTTAC, the “relative binding free energy” value was 0.11 kcal/mol. TGAGGCACGTGTGGGG was tested, and the “relative binding free energy” value was 0.04 kcal/mol. In the case of AGTCGCACGTGAGTAG, the “relative binding free energy” value was 0.21 kcal/mol. For TTAATCACGTGGAGGG, the “relative binding free energy” value was 0.21 kcal/mol. CGTTTCACGTGGTGAG was tested, and the “relative binding free energy” value was 0.13 kcal/mol. With CATGTCACGTGGGGGC the “relative binding free energy” value was -0.13 kcal/mol. For GGGGTCACGTGCTTGA, the “relative binding free energy” value was 0.22 kcal/mol. With GTGCACACGTGTAGGG the “relative binding free energy” value was -0.04 kcal/mol. TCTGTCACGTGTAATT was tested, and the “relative binding free energy” value was 0.08 kcal/mol. For GGTGGCACGTGTCTTA, the “relative binding free energy” value was -0.19 kcal/mol. GCTTGCACGTGGTGGC was tested, and the “relative binding free energy” value was -0.03 kcal/mol. With TTCGTCACGTGGGGAC the “relative binding free energy” value was 0 kcal/mol. With TTTTACACGTGGAGAA the “relative binding free energy” value was 0.12 kcal/mol. AGATGCACGTGAGGTG was tested, and the “relative binding free energy” value was 0.14 kcal/mol. TGTGGCACGTGACGCG was tested, and the “relative binding free energy” value was 0.05 kcal/mol. With GTGAGCACGTGGTGGG the “relative binding free energy” value was -0.09 kcal/mol. With TTAGTCACGTGTGGAG the “relative binding free energy” value was 0.21 kcal/mol. For GACTTCACGTGTGTAG, the “relative binding free energy” value was 0.32 kcal/mol. For CGTGTCACGTGTGTGC, the “relative binding free energy” value was -0.01 kcal/mol. For CGGTACACGTGGTAGG, the “relative binding free energy” value was 0.01 kcal/mol. For CGATGCACGTGAGGTT, the “relative binding free energy” value was 0.16 kcal/mol. For AGGCCCACGTGGAGGG, the “relative binding free energy” value was -0.1 kcal/mol. With ATATGCACGTGGATAG the “relative binding free energy” value was 0.05 kcal/mol. CATTTCACGTGGGCGG was tested, and the “relative binding free energy” value was 0.19 kcal/mol. In the case of GGTTACACGTGTCGTT, the “relative binding free energy” value was 0.22 kcal/mol. For TAGAGCACGTGGTATT, the “relative binding free energy” value was -0.06 kcal/mol. In the case of TTTTGCACGTGTGGGT, the “relative binding free energy” value was 0.16 kcal/mol. With GGTCACACGTGGTAGG the “relative binding free energy” value was 0.14 kcal/mol. ATGTACACGTGAATGT was tested, and the “relative binding free energy” value was 0.22 kcal/mol. With GGTTGCACGTGGTGTA the “relative binding free energy” value was -0.04 kcal/mol. For ATGAACACGTGGTGGA, the “relative binding free energy” value was 0.01 kcal/mol. For TGTCTCACGTGTAAGA, the “relative binding free energy” value was 0.16 kcal/mol. In the case of TCTAGCACGTGATGTT, the “relative binding free energy” value was 0.07 kcal/mol. ATGTGCACGTGGCCGG was tested, and the “relative binding free energy” value was -0.11 kcal/mol. In the case of TCCGGCACGTGAGTTG, the “relative binding free energy” value was 0.13 kcal/mol. With AAGGTCACGTGACTTG the “relative binding free energy” value was 0.19 kcal/mol. For TTATGCACGTGCCGGT, the “relative binding free energy” value was -0.04 kcal/mol. In the case of ATGGGCACGTGCATGT, the “relative binding free energy” value was -0.28 kcal/mol. With TTGGCCACGTGAGGAA the “relative binding free energy” value was 0.24 kcal/mol. In the case of TTGGACACGTGCAGCT, the “relative binding free energy” value was 0.09 kcal/mol. TTGGACACGTGGGTGA was tested, and the “relative binding free energy” value was -0.01 kcal/mol. In the case of AGGTTCACGTGTCGCG, the “relative binding free energy” value was 0.28 kcal/mol. In the case of GTGCACACGTGAAGTG, the “relative binding free energy” value was 0.34 kcal/mol. In the case of TCGCTCACGTGGGGGT, the “relative binding free energy” value was -0.09 kcal/mol. In the case of ATGGTCACGTGTGTTG, the “relative binding free energy” value was 0.2 kcal/mol. With CTTGTCACGTGCAGGT the “relative binding free energy” value was 0.05 kcal/mol. GGATACACGTGCTGTA was tested, and the “relative binding free energy” value was 0.09 kcal/mol. With CGTTTCACGTGTGGTC the “relative binding free energy” value was 0.11 kcal/mol. For GGTGACACGTGTGTCG, the “relative binding free energy” value was 0.01 kcal/mol. For GTGAGCACGTGTTGAT, the “relative binding free energy” value was -0.04 kcal/mol. In the case of ACTGGCACGTGAGGGT, the “relative binding free energy” value was 0.13 kcal/mol. In the case of CGTTGCACGTGGTGGT, the “relative binding free energy” value was -0.06 kcal/mol. AGCAGCACGTGGAGTG was tested, and the “relative binding free energy” value was -0.07 kcal/mol. TTTAACACGTGAGCGT was tested, and the “relative binding free energy” value was 0.1 kcal/mol. In the case of TGGGGCACGTGTAAGA, the “relative binding free energy” value was 0.14 kcal/mol. For ACAAGCACGTGATTGG, the “relative binding free energy” value was 0.09 kcal/mol. CATAGCACGTGCTGGG was tested, and the “relative binding free energy” value was -0.11 kcal/mol. With ACGTTCACGTGTGAGT the “relative binding free energy” value was 0.26 kcal/mol. With TCGGGCACGTGTGGGC the “relative binding free energy” value was 0.04 kcal/mol. For GGTCGCACGTGAGGAG, the “relative binding free energy” value was 0.24 kcal/mol. For AAGGGCACGTGCGAGT, the “relative binding free energy” value was -0.09 kcal/mol. For TGGTGCACGTGGTCTC, the “relative binding free energy” value was -0.21 kcal/mol. In the case of TTGTTCACGTGGCGAA, the “relative binding free energy” value was 0.15 kcal/mol. TGGTGCACGTGGCAAT was tested, and the “relative binding free energy” value was -0.05 kcal/mol. GTATGCACGTGGAGTG was tested, and the “relative binding free energy” value was -0.08 kcal/mol. In the case of AATTGCACGTGGTGTA, the “relative binding free energy” value was 0.01 kcal/mol. TTTTACACGTGGCTGG was tested, and the “relative binding free energy” value was 0.07 kcal/mol. For GCTAGCACGTGGGTAG, the “relative binding free energy” value was -0.18 kcal/mol. AGTTTCACGTGTCTAT was tested, and the “relative binding free energy” value was 0.38 kcal/mol. With AGTATCACGTGGGATA the “relative binding free energy” value was -0.09 kcal/mol. GTTCACACGTGTAGTA was tested, and the “relative binding free energy” value was 0.1 kcal/mol. In the case of CGGGACACGTGGTTAG, the “relative binding free energy” value was 0.02 kcal/mol. In the case of CCCGGCACGTGTGGGT, the “relative binding free energy” value was -0.03 kcal/mol.
